# Data as given in the supplement of paper PMC3334620.
# The full ranking holds about 33,000 sequences; the median of “E-score (-0.5 to 0.5)” is about -0.032, and the highest 2% start at about 0.36. The list shows a part of the results.
# Molecular target: T1, Sko1 (UniProt Q02100)
# T1 sequence: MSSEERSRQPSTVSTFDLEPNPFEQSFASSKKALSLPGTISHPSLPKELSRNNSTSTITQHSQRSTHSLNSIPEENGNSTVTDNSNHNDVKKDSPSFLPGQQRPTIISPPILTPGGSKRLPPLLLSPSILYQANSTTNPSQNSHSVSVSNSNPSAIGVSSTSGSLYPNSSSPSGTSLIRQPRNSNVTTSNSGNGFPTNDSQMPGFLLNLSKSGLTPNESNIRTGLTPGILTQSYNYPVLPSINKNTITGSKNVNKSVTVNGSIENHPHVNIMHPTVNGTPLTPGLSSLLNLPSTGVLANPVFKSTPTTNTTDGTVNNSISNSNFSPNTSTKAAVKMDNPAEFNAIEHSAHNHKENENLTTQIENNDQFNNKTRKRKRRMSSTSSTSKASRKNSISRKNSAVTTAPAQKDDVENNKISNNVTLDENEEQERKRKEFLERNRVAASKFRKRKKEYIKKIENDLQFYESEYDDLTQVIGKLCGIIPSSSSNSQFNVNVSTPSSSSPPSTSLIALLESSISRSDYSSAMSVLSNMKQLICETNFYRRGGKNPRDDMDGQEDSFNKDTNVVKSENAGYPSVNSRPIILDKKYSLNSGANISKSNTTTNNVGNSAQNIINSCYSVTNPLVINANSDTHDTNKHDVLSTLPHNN
# Experiment: PBM E-score (8-mer binding enrichment) (E-score (-0.5 to 0.5)); higher = stronger / more preferred TF binding; most listed sequences are background and not binding sites
# Settings: protein concentration: 200 nM; construct: GST-full length
# Experimental: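 Universal 'all 10-mer' protein binding microarrays (Agilent AMADID 015681) probed with GST-tagged S. cerevisiae TFs (full-length or DBD) made by in vitro transcription/translation (PURExpress), about 100-200 nM. Bound TF was detected with fluorescent anti-GST. Each ungapped 8-mer (which stands for itself and its reverse complement) is scored by the PBM enrichment score (E-score), a modified Wilcoxon-Mann-Whitney statistic from -0.5 to +0.5, computed with the Universal PBM Analysis Suite. Scale: above 0.35 generally sequence-specific binding.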
row,Sequence,PBM E-score
1,ACACCTCC,-0.195
2,CTGATGAC,0.318
3,ACCAATCT,-0.0508
4,GCGGATGA,0.0872
5,AAGCAACT,0.0356
6,CTATCGCC,-0.13
7,AACCTCCC,-0.154
8,CGGTGATA,0.00538
9,GGAATTTA,0.154
10,CAGATTCC,-0.248
11,CCGTTAGC,-0.15
12,CGCTAATC,-0.0615
13,AAAAAACG,0.244
14,AAATCGTG,0.248
15,TACCGCGA,0.161
16,GTGAAAGA,0.187
17,CTGACCTC,-0.296
18,AGTAGTTG,-0.0764
19,CACCTCAC,-0.0158
20,ATCAGAAG,-0.0145
21,AGGCAGCG,-0.253
22,GCCGGACC,-0.115

row,Sequence,PBM E-score
1,CTTGTATC,-0.0193
2,TGAGTGAA,-0.179
3,GATGTCCA,0.162
4,CAAGGAAG,-0.196
5,GAGATACC,-0.039
6,GTAGGGCA,-0.0329
7,ATCCCTTG,-0.149
8,GCTGTAAC,-0.0515
9,AATCACCC,-0.0732
10,AGAGGGGC,-0.257
11,AAAGATAC,0.215
12,ACCGCCTC,-0.312
13,AAGGTCGC,-0.219
14,ACAGATCT,-0.0706
15,CTATTCAG,-0.0536
16,AAGGCAAC,-0.0193
17,CAGATTTA,-0.00359
18,ACGGGACA,-0.265
19,AAGATCCT,-0.0622
20,GCCCAAGA,-0.164
21,AATTGAGG,-0.0812
22,ATATATCA,0.133

row,Sequence,PBM E-score
1,ACCAAACT,0.042
2,ACCATGAA,-0.0406
3,GTGCATAA,0.0663
4,GTGGTCCA,-0.0431
5,CGGGCGCC,-0.112
6,ATGCCAGA,-0.0478
7,AGTTGGCC,-0.245
8,GCTTCCAC,-0.147
9,CATTCAAC,0.0545
10,ATTAGATG,0.287
11,TTAAAGAA,0.0838
12,TAAGGGAA,0.108
13,CATCCGGC,-0.35
14,CCTCGGCC,-0.306
15,ACACCCAC,0.0936
16,CGTTATAC,0.321
17,AGTAACTA,0.146
18,CAAATAAG,-0.106
19,TCACTAGA,0.114
20,CTTAGTCC,-0.141
21,CGTGTGGA,0.00704
22,TAGCCGAA,0.0251

row,Sequence,PBM E-score
1,TACCGCTA,-0.0889
2,AGACACTC,-0.109
3,AGAACCGC,0.0875
4,CAGTAATG,0.133
5,GTCGCCGA,-0.0463
6,GCAGTAAC,0.0218
7,AACCCGTC,-0.00481
8,ATACTCTA,0.0678
9,AAAAACTA,0.232
10,GAGACACA,-0.039
11,ACTTCAAC,0.0487
12,AGCGACAG,-0.155
13,AGCATGGA,-0.15
14,CAAAATAG,-0.0965
15,AAAAGTCT,-0.0141
16,CATCAAGA,0.0814
17,AACGTAAC,0.441
18,TGAATACA,0.132
19,ACTCCCTG,-0.158
20,GGGGGCAA,-0.094
21,CAGACCTC,-0.14
22,AAGTCGTA,0.233

row,Sequence,PBM E-score
1,ATATATCG,0.149
2,CAGGGCAA,-0.11
3,AGTCAACA,0.0814
4,GTACAATA,0.323
5,TACGGCGA,-0.11
6,GGCGGCGA,-0.165
7,AGAGCATC,-0.0889
8,CCTATAAC,-0.00903
9,CCGAGTAC,-0.0735
10,ACTTGGCT,-0.248
11,AGCTATTC,0.0128
12,CACCCGAG,-0.211
13,GGCGCTCA,-0.222
14,CTAACAGA,-0.00958
15,GATCTCCC,-0.337
16,ATGCAGTC,-0.107
17,ACAACAAT,-0.0368
18,AATAAAGG,-0.156
19,TGAGTTAA,0.191
20,AGCTCCTG,-0.188
21,AGAAGCCG,-0.142
22,CCCAAGAG,-0.276
